{
  "source": "the supplement of paper PMC3334620",
  "note": "In all, about 33,000 sequences were measured (“E-score (-0.5 to 0.5)”: median about -0.011, highest 2% from about 0.28 on). The list shows a part of the results.",
  "data": [
    {"molecular_target": "T1, Gcr1 (UniProt P07261)", "T1 sequence": "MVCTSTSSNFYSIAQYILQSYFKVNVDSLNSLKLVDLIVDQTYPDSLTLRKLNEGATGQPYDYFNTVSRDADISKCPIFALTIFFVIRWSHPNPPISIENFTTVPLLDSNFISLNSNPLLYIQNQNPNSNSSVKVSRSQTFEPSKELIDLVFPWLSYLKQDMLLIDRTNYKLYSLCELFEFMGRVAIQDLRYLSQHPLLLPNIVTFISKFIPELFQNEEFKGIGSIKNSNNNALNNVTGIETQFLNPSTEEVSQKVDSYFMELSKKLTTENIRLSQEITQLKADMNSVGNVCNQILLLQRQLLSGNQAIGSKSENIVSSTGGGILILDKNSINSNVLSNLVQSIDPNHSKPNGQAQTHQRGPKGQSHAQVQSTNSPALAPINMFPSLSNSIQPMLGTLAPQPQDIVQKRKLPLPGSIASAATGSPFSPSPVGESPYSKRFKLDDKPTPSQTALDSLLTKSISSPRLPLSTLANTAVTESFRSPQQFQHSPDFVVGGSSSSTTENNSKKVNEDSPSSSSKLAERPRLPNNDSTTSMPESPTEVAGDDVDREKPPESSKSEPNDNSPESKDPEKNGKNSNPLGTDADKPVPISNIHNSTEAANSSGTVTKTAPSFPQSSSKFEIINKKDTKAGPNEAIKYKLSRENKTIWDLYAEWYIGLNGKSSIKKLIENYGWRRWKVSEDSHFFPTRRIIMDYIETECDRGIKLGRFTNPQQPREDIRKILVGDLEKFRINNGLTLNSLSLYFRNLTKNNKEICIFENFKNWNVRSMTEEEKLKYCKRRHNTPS", "experiment": "PBM E-score (8-mer binding enrichment) (E-score (-0.5 to 0.5)); higher = stronger / more preferred TF binding; most listed sequences are background and not binding sites", "settings": "protein concentration: 100 nM; construct: GST-full length", "method_in_brief": "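Universal all-10-mer Agilent arrays, double-stranded by primer extension on fresh or once-stripped slides, were probed with about 100-200 nM GST-tagged yeast transcription factors made by PURExpress. Fluorescent anti-GST detected bound protein, and masliner normalised the scans. E-scores from the Universal PBM Analysis Suite were given to each ungapped eight-base word pooled with its reverse complement.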", "values": [
      {"sequence": "GGCCCCCA", "PBM E-score": 0.231},
      {"sequence": "CCAACACG", "PBM E-score": -0.0387},
      {"sequence": "GCCTGTCC", "PBM E-score": -0.0681},
      {"sequence": "CGGACGAG", "PBM E-score": -0.00195},
      {"sequence": "GTACCGCA", "PBM E-score": 0.0162},
      {"sequence": "AATGAATA", "PBM E-score": -0.111},
      {"sequence": "ACTAACCT", "PBM E-score": -0.152},
      {"sequence": "CTATACCC", "PBM E-score": 0.026},
      {"sequence": "CTTACCAA", "PBM E-score": -0.046},
      {"sequence": "TGTCACAA", "PBM E-score": 0.105},
      {"sequence": "ACGGAAAG", "PBM E-score": 0.00962},
      {"sequence": "GACGCTAC", "PBM E-score": 0.249},
      {"sequence": "GATGCTGA", "PBM E-score": 0.312},
      {"sequence": "ATCCCGGG", "PBM E-score": 0.0771},
      {"sequence": "CCGAGTAG", "PBM E-score": -0.0161},
      {"sequence": "CAGCTGAA", "PBM E-score": -0.00224},
      {"sequence": "AGGAATTG", "PBM E-score": 0.00679},
      {"sequence": "GGCCGCGA", "PBM E-score": -0.233},
      {"sequence": "GTGATATA", "PBM E-score": -0.2},
      {"sequence": "CACCTAGC", "PBM E-score": -0.182},
      {"sequence": "ACTGAGTC", "PBM E-score": -0.0322},
      {"sequence": "ATGAAGCC", "PBM E-score": 0.145},
      {"sequence": "CGCACAAC", "PBM E-score": -0.138},
      {"sequence": "TCTTCACA", "PBM E-score": 0.078},
      {"sequence": "ATCTCCGA", "PBM E-score": -0.169},
      {"sequence": "AACTGGAT", "PBM E-score": 0.278},
      {"sequence": "AATCTATC", "PBM E-score": 0.0866},
      {"sequence": "ACTGAGGC", "PBM E-score": -0.216},
      {"sequence": "GAAGCGTA", "PBM E-score": 0.106},
      {"sequence": "CGGTTATA", "PBM E-score": -0.0132},
      {"sequence": "CTGCCCGC", "PBM E-score": -0.127},
      {"sequence": "GCACGGGA", "PBM E-score": 0.0483},
      {"sequence": "GACCTTTA", "PBM E-score": 0.0125},
      {"sequence": "ATCCATCA", "PBM E-score": -0.0203},
      {"sequence": "GGTCAGAC", "PBM E-score": -0.147},
      {"sequence": "GCCTCTAA", "PBM E-score": 0.265},
      {"sequence": "CGATAACC", "PBM E-score": -0.00227},
      {"sequence": "CCTTTCCA", "PBM E-score": -0.17},
      {"sequence": "CTTATCCC", "PBM E-score": 0.0307},
      {"sequence": "CGTCGGGC", "PBM E-score": -0.21},
      {"sequence": "GAACTAAC", "PBM E-score": -0.15},
      {"sequence": "CAGTGCCC", "PBM E-score": -0.148},
      {"sequence": "AATACTCC", "PBM E-score": -0.0742},
      {"sequence": "GGCCATCA", "PBM E-score": -0.148},
      {"sequence": "ACCTTCAT", "PBM E-score": -0.16},
      {"sequence": "ACGCTAAA", "PBM E-score": -0.118},
      {"sequence": "GATCTGAA", "PBM E-score": -0.0028},
      {"sequence": "CAGTCGAA", "PBM E-score": 0.0113},
      {"sequence": "AAGTTATT", "PBM E-score": 0.11},
      {"sequence": "ATTTTGTC", "PBM E-score": 0.118},
      {"sequence": "GGCGAGAC", "PBM E-score": -0.277},
      {"sequence": "ATAGTTTC", "PBM E-score": -0.102},
      {"sequence": "ACTAGATA", "PBM E-score": 0.111},
      {"sequence": "CAATGTGG", "PBM E-score": 0.083},
      {"sequence": "CAGTACGC", "PBM E-score": 0.0102},
      {"sequence": "CTGACTCA", "PBM E-score": -0.106},
      {"sequence": "CTGAAGCC", "PBM E-score": -0.0704},
      {"sequence": "AATGGAAT", "PBM E-score": 0.301},
      {"sequence": "CCTTTACG", "PBM E-score": -0.00275},
      {"sequence": "GATGTCTA", "PBM E-score": 0.0157},
      {"sequence": "CCTAGGAA", "PBM E-score": -0.0238},
      {"sequence": "ATAAAGTG", "PBM E-score": 0.114},
      {"sequence": "AATTGGAT", "PBM E-score": 0.0824},
      {"sequence": "CAACTCCA", "PBM E-score": -0.0963},
      {"sequence": "AACATCGC", "PBM E-score": -0.031},
      {"sequence": "GCTTTGGA", "PBM E-score": 0.0838},
      {"sequence": "ACGTCGCG", "PBM E-score": 0.16},
      {"sequence": "GTCATAAA", "PBM E-score": -0.00707},
      {"sequence": "GACGATCA", "PBM E-score": -0.159},
      {"sequence": "CAAGTAGG", "PBM E-score": -0.0463},
      {"sequence": "GACCTCTA", "PBM E-score": -0.149},
      {"sequence": "AAACACGC", "PBM E-score": 0.191},
      {"sequence": "AATAACTA", "PBM E-score": 0.102},
      {"sequence": "CGTCGAGA", "PBM E-score": -0.163},
      {"sequence": "CGGAGTAA", "PBM E-score": -0.0671},
      {"sequence": "GACGTGGC", "PBM E-score": -0.143},
      {"sequence": "AGAAATAT", "PBM E-score": 0.0324},
      {"sequence": "CGGGACTC", "PBM E-score": 0.183},
      {"sequence": "ATCCCTGG", "PBM E-score": -0.104},
      {"sequence": "ATTAAAAT", "PBM E-score": 0.241},
      {"sequence": "TAATAAGA", "PBM E-score": 0.115},
      {"sequence": "CTTATTCA", "PBM E-score": -0.211},
      {"sequence": "TCCCACAA", "PBM E-score": 0.193},
      {"sequence": "CGGTAGTC", "PBM E-score": -0.169},
      {"sequence": "GCAATGAC", "PBM E-score": -0.226},
      {"sequence": "AAAACATT", "PBM E-score": 0.127},
      {"sequence": "CCATTAAG", "PBM E-score": 0.128},
      {"sequence": "TGTGCGAA", "PBM E-score": -0.121},
      {"sequence": "AGCATCGA", "PBM E-score": 0.0648},
      {"sequence": "AACATCTT", "PBM E-score": 0.109},
      {"sequence": "AGGATAAT", "PBM E-score": 0.0746},
      {"sequence": "ACCAGGCG", "PBM E-score": 0.0399},
      {"sequence": "GAAGTCTA", "PBM E-score": -0.0939},
      {"sequence": "ATGCAAGA", "PBM E-score": -0.00923},
      {"sequence": "GGGTAAGA", "PBM E-score": 0.0267},
      {"sequence": "GCCTACTA", "PBM E-score": 0.00583},
      {"sequence": "ATTAGTTG", "PBM E-score": 0.188},
      {"sequence": "CTAATACC", "PBM E-score": -0.152},
      {"sequence": "ACTAGTCC", "PBM E-score": -0.0815},
      {"sequence": "AACTCGCG", "PBM E-score": -0.148},
      {"sequence": "ATAATAAA", "PBM E-score": 0.101},
      {"sequence": "CGCTTTGA", "PBM E-score": -0.112},
      {"sequence": "AGGGGACC", "PBM E-score": -0.0565},
      {"sequence": "TACCATCA", "PBM E-score": -0.12},
      {"sequence": "ACTCGGTC", "PBM E-score": -0.233},
      {"sequence": "TAGACTCA", "PBM E-score": -0.0352},
      {"sequence": "ACACCAGC", "PBM E-score": -0.126},
      {"sequence": "ACGCTTAA", "PBM E-score": 0.0493},
      {"sequence": "GCGCAAGC", "PBM E-score": -0.171},
      {"sequence": "ACCGGTAT", "PBM E-score": 0.278}
    ]}
  ]
}
